Assay results from PubChem BioAssay AID504466 (National Center for Advancing Translational Sciences (NCATS), 2011).
The whole screen tested about 330,000 compounds, of which about 4,200 (1.3%) were called active. This list was built around the results that the source calls inconclusive (neither active nor inactive); the mix of calls is not that of the screen. Calls come from the whole dose curve; as a rule, active = well fitted activation curve with a large enough effect; inconclusive = small, poorly fitted or top-dose-only effect; inactive = no such curve, though single readings can be large or run the other way. Where the call is inconclusive, the potency comes from a doubtful curve fit.

experiment: qHTS screen for small molecules that induce genotoxicity in human embryonic kidney (HEK293T) cells expressing luciferase-tagged ELG1; settings: HEK293T ELG1-luciferase reporter, luminescence, 16 h; series mostly up to 46 µM; activity change, positive = activation: at the top concentration; note: nearly all actives have a fitted effect of over 60% in size; for activity change, positive = activation: % of control where 0% means no effect
In short: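 Cells (2,000/well) expressing the ELG1-luciferase fusion are dosed by pin tool and kept 16 hr at 37 °C, 5% CO2. Signal comes from ONE-Glo luciferase reagent after 30 min at room temperature.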
Potency is the fitted concentration of half-maximal effect; tags give direction and shape of the fitted curve.

Structure (SMILES) | activity change, positive = activation | Potency
COc1ccc(N(C(=O)Cn2cnc3ccccc32)C(C(=O)NC2CCCCC2)c2ccccc2)cc1 (configuration not stated) | inactive: 1.28% | 
Clc1ccc(-c2nnc(-c3ccccc3)o2)cn1 |  | inconclusive: 16.4 µM [activator, single point]
C/C(=N\NC(=O)c1cc2ccccc2cc1O)c1cc2ccccc2o1 | inactive: -11.3% | 
O=C(c1cc(-c2ccc(Cl)cc2Cl)on1)N1CCCCCC1 |  | active: 4.61 µM
C=CCn1c(SCC(=O)NC2CCCC2)nc2c([nH]c3ccccc32)c1=O |  | inconclusive: 16.4 µM [activator, partial curve, poor fit]
COCCOC(=O)c1c(NC(=O)CN2CCOCC2)sc(C(N)=O)c1C | inactive: 8.58% | 
CCCCn1c(/C=N/Nc2nc3ccccc3[nH]2)nc2ccccc21 | inactive: 11.3% | 
Nc1nonc1C(=O)NCCc1ccccc1 |  | inconclusive: 25.9 µM [activator, partial curve, poor fit]
O=C(Nc1cc(Cl)ccn1)C1CCN(S(=O)(=O)c2cccs2)CC1 | inactive: -7.91% | 
Cc1ccc(NC(=S)Nc2cc(C)on2)cc1 |  | inconclusive: 9.2 µM [activator, partial curve, poor fit]
COC(=O)C(C)Sc1ncnc2c1nnn2-c1ccc(F)cc1 (configuration not stated) |  | inconclusive: 29.1 µM [activator, single point]
CN(c1ccccc1)S(=O)(=O)c1ccc(C(=O)Nc2ccncc2)cc1 |  | inconclusive: 20.6 µM [activator, partial curve, poor fit]
O=C(Nc1ccccn1)c1ccc2ccccc2n1 |  | inconclusive: 1.64 µM [activator, full curve]
Cc1csc(NC(=O)c2cc3ccccc3o2)n1 |  | inconclusive: 0.651 µM [activator, full curve, poor fit]
Cc1ccc(-c2nc3ccccc3n2C)o1 |  | active: 2.91 µM
O=C(O)c1cnn(-c2nc(-c3ccc(Br)cc3)cs2)c1C(F)(F)F |  | inconclusive: 14.6 µM [activator, partial curve, poor fit]
COc1cccc(C(=O)O/N=C(\N)c2ccc([N+](=O)[O-])cc2)c1OC |  | inconclusive: 10.3 µM [activator, partial curve, poor fit]
O=C(COc1nc2ccccc2nc1N1CCOCC1)N1CCc2ccccc21 |  | inconclusive: 25.9 µM [activator, partial curve, poor fit]
COc1ccccc1CCCNC(=O)C1CCC(=O)N(Cc2ccccc2F)C1 (configuration not stated) |  | inconclusive: 18.3 µM [activator, single point]
CN(C)c1ccc(NC(=O)c2cccc(N3C(=O)C4C5C=CC(C5)C4C3=O)c2)cc1 (configuration not stated) |  | inconclusive: 8.2 µM [activator, partial curve]
O=C(Nc1ccc2ccccc2c1)c1onc2c1CCCC2 |  | inconclusive: 1.3 µM [activator, partial curve]
Cc1cccnc1NC(=O)/C=C/c1ccc2c(c1)OCO2 |  | inconclusive: 8.2 µM [activator, partial curve]
CCNc1nc(SCCOc2ccccc2)nc(N(C)C)n1 |  | inconclusive: 20.6 µM [activator, partial curve, poor fit]
CC(C)N1C/C(=C/c2ccsc2)C(=O)/C(=C/c2ccsc2)C1 | inactive: -10.6% | 
O=C(c1ccc(Cl)c(S(=O)(=O)N2CCOCC2)c1)N(Cc1ccco1)Cc1cccs1 | inactive: -10.3% | 
CC1=C(C(=O)Nc2ccc(CC(=O)NCc3ccc(OC(C)C)cc3)cc2)SCCO1 |  | active: 9.2 µM

Structure (SMILES) | activity change, positive = activation | Potency
CC(=O)c1c(C)[nH]c(C(=O)OCc2cccc(C)c2)c1C |  | inconclusive: 23.1 µM [activator, partial curve, poor fit]
Cc1nnc(SCC(=O)Nc2cc(S(C)(=O)=O)ccc2Cl)n1Cc1ccccc1 | inactive: -3.49% | 
COc1cc(NC(=O)CN(C)Cc2ccc(OC(F)F)cc2)c(C)cc1[N+](=O)[O-] | inactive: -6.62% | 
CC(=O)Nc1ccc(C(=O)CSc2nc3ccc(C)cc3[nH]2)cc1 |  | inconclusive: 23.1 µM [activator, partial curve, poor fit]
O=C(CCC(=O)Nc1ccc(Cl)cc1Cl)N/N=C/c1ccc([N+](=O)[O-])o1 | inactive: 8.51% | 
Cc1ccc(OCc2nc3ccccc3[nH]2)cc1 |  | inconclusive: 1.64 µM [activator, full curve]
O=C(Nn1cnnc1)c1cccc(S(=O)(=O)N2CCOCC2)c1 | inactive: 0.183% | 
O=[N+]([O-])c1ccc(CSc2nc3ccccc3o2)cc1 |  | inconclusive: 3.66 µM [activator, full curve, poor fit]
Cc1ccc(OC(=O)c2ccc(S(=O)(=O)N(C)C)cc2)c(-n2nc3ccccc3n2)c1 |  | inconclusive: 5.8 µM [activator, partial curve]
O=C(NC1CCCC1)c1cc2cc(Br)ccc2o1 |  | inconclusive: 10.3 µM [activator, partial curve]
COC(=O)/C=C1\OC(c2ccccc2)=CC1=O |  | inconclusive: 18.4 µM [activator, partial curve, poor fit]
Cc1ccc(-c2nn(-c3ccccc3)cc2C(N)=O)o1 | inactive: -0.138% | 
COc1ccccc1-c1nnc(Nc2nc3c(OC)cccc3s2)o1 | inactive: 14.5% | 
O=C(NCc1cccs1)Nc1ccc2c(c1)OCO2 |  | inconclusive: 16.4 µM [activator, partial curve, poor fit]
Cc1ccc(SCC(=O)N2CCC(C(N)=O)CC2)cc1 |  | inconclusive: 4.61 µM [activator, partial curve, poor fit]
N#CC1CC(c2ccccc2)=NN1c1ccccc1[N+](=O)[O-] (configuration not stated) |  | inconclusive: 18.3 µM [activator, single point]
COc1ccc(C(C)(C)C)cc1NC(=O)CCN1C(=O)NC(C)(C)C1=O | inactive: 0.752% | 
Cc1cccc(-n2nnc3c(=O)n(CC(=O)Nc4cc(C)on4)cnc32)c1 | inactive: -1.91% | 
Cc1sc(NC(=O)C2=COCCO2)c(C#N)c1C |  | inconclusive: 18.3 µM [activator, partial curve, poor fit]
Nc1cccc2c1C(=O)N(CCOc1ccc(F)cc1)C2=O |  | active: 2.06 µM
COCCCNc1ncnc2c1[nH]c1ccccc12 | inactive: -1.4% | 
c1ccc(OCc2nc3ccccc3[nH]2)cc1 |  | inconclusive: 9.2 µM [activator, partial curve, poor fit]
COc1ccccc1C(=O)NC(=O)Nc1cccc(Cl)c1 |  | inconclusive: 2.91 µM [activator, full curve]
Cc1ccc(/C=N/NC(=O)c2ccco2)s1 |  | inconclusive: 20.6 µM [activator, partial curve, poor fit]
Cc1ccc(-n2c(CCC(=O)O)ccc2-c2cccs2)cc1C | inactive: 1.87% | 
Cc1ccc(Cn2ccnc2C(=O)Nc2ccccc2)cc1 |  | inconclusive: 23.1 µM [activator, partial curve, poor fit]

Structure (SMILES) | activity change, positive = activation | Potency
Cc1ccnc(NC(=O)CNC(=O)c2ccc(Br)o2)c1 |  | active: 16.4 µM
CCOC(=O)c1cc2c(=O)c3ccccc3oc2nc1C |  | active: 9.2 µM
CC(C(=O)Nc1ccccc1)N(C)CCOc1ccccc1 (configuration not stated) | inactive: -0.628% | 
Cc1cc(C(=O)COC(=O)c2cccn2C)c(C)n1Cc1ccco1 |  | active: 0.411 µM
CCOC(=O)N/N=C\C=C\c1ccc2c(c1)OCO2 |  | inconclusive: 16.4 µM [activator, partial curve, poor fit]
Cc1cc(N2CCCCC2)n2ncc(-c3ccccc3)c2n1 |  | inconclusive: 0.58 µM [activator, partial curve]
COc1ccc(-c2cc3ccccc3[nH]2)cc1 |  | inconclusive: 10.3 µM [activator, partial curve]
O=C(CCCC(=O)c1ccccc1)Nc1ccc(O)cc1 | inactive: -0.628% | 
Nc1ccc(-c2cnc(-c3ccc(N)cc3)nc2)cc1 |  | inconclusive: 1.26 µM [activator, full curve, poor fit]
Cc1ccc(-c2csc(NC(=O)c3ccccc3F)c2C(=O)O)cc1 | inactive: -3.97% | 
Cc1ccc(C)c(C(=O)COC(=O)c2cc([N+](=O)[O-])ccc2N2CCOCC2)c1 | inactive: 0.905% | 
C/C(Cc1ccccc1)=N\NC(=O)c1ccccn1 |  | inconclusive: 29.1 µM [activator, single point]
Cc1cc(C)c(N2CCN(S(=O)(=O)N3CCCCCC3)CC2)c(C)c1 | inactive: -4.41% | 
COc1cc(NC(=O)c2csc(-c3ccncc3)n2)cc(C(=O)Nc2cccc(C(F)(F)F)c2)c1 | inactive: -13% | 
CC(=Nc1ccc(Br)cc1)c1sc2ccccc2c1O |  | active: 3.66 µM
COc1ccc(CCn2c(N3CCN(Cc4ccccc4)CC3)nc3c2c(=O)[nH]c(=O)n3C)cc1 | inactive: -0.305% | 
O=C(NC(=S)NNC(=O)c1ccco1)c1ccc(F)cc1 | inactive: 7.11% | 
O=C1Nc2ccc(NS(=O)(=O)c3cccs3)c3cccc1c23 |  | inconclusive: 14.6 µM [activator, partial curve]
CCc1noc(C)c1C(=O)Nc1ccc(F)c(F)c1F | inactive: 4.13% | 
CSc1ccc(/C=C/C(=O)OCC(=O)c2ccc[nH]2)cc1 | inactive: 2.06% | 
O=C(O)CCCN1C(=O)/C(=C/C=C/c2ccco2)SC1=S | inactive: 3.62% | 
c1ccc2sc(NCC3CCCO3)nc2c1 (configuration not stated) |  | inconclusive: 10.3 µM [activator, partial curve]
CCOc1ccc(NC(=O)c2ccc(CC)s2)c([N+](=O)[O-])c1 |  | inconclusive: 2.31 µM [activator, full curve, poor fit]
COc1cc2cc(C(=O)N3CCOCC3)cc(-c3ccc(C)cc3)c2cc1OC | inactive: -6.6% | 
O=C(NCc1ccco1)c1cc(-c2ccco2)on1 |  | inconclusive: 20.6 µM [activator, single point]
